Experimental data published in publication PMC8792015.
Numbering of substitutions follows the chain as printed. These are yes or no findings as the source states them, for the method shown. For part of these data: Binding seen in cells or lysates may run through a third protein. Some entries that bind do so weakly or less than the wild type. For part of these data: Sequences can lack the tags named with a protein.

The chains behind the UniProt entries cited, without tags or fusion partners. Where a name states a change or a piece, a line headed by the entry shows the natural chain unless it says otherwise.
UniProt Q96GY3: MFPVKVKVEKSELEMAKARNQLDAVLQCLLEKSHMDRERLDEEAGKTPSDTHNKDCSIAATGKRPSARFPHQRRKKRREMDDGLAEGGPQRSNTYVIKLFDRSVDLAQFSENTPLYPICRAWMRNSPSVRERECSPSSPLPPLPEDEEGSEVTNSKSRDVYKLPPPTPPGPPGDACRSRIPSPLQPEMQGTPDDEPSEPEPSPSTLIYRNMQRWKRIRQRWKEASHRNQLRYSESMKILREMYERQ
UniProt Q6MZP7: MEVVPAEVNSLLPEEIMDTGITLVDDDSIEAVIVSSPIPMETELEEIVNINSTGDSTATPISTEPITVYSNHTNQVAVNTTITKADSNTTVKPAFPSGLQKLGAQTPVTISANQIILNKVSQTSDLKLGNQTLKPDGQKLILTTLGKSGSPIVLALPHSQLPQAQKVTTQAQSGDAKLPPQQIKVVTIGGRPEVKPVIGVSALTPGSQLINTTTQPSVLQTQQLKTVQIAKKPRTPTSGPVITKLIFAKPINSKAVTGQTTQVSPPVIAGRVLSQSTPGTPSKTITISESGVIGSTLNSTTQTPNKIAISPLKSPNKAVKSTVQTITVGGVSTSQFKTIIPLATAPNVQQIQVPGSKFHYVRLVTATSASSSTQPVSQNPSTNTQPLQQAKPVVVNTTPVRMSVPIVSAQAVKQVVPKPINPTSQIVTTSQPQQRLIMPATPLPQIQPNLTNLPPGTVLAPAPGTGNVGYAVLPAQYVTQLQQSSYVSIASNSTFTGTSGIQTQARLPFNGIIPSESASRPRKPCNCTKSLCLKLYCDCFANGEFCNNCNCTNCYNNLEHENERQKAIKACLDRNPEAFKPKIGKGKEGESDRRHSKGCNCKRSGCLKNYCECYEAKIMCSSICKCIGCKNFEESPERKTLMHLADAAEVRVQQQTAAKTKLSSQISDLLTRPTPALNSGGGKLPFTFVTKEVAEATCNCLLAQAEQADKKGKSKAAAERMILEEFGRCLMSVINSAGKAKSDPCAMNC
UniProt Q09028: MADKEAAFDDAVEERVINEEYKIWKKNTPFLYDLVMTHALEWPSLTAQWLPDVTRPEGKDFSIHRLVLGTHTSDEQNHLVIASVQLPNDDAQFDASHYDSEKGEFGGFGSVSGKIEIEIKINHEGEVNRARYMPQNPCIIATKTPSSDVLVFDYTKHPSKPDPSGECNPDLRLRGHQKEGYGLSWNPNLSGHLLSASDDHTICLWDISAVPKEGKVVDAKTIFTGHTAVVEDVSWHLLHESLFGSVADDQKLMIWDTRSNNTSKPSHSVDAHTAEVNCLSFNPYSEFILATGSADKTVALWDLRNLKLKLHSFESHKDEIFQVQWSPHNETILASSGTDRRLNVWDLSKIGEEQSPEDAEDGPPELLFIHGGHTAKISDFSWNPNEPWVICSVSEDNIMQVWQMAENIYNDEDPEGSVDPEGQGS
UniProt Q08999: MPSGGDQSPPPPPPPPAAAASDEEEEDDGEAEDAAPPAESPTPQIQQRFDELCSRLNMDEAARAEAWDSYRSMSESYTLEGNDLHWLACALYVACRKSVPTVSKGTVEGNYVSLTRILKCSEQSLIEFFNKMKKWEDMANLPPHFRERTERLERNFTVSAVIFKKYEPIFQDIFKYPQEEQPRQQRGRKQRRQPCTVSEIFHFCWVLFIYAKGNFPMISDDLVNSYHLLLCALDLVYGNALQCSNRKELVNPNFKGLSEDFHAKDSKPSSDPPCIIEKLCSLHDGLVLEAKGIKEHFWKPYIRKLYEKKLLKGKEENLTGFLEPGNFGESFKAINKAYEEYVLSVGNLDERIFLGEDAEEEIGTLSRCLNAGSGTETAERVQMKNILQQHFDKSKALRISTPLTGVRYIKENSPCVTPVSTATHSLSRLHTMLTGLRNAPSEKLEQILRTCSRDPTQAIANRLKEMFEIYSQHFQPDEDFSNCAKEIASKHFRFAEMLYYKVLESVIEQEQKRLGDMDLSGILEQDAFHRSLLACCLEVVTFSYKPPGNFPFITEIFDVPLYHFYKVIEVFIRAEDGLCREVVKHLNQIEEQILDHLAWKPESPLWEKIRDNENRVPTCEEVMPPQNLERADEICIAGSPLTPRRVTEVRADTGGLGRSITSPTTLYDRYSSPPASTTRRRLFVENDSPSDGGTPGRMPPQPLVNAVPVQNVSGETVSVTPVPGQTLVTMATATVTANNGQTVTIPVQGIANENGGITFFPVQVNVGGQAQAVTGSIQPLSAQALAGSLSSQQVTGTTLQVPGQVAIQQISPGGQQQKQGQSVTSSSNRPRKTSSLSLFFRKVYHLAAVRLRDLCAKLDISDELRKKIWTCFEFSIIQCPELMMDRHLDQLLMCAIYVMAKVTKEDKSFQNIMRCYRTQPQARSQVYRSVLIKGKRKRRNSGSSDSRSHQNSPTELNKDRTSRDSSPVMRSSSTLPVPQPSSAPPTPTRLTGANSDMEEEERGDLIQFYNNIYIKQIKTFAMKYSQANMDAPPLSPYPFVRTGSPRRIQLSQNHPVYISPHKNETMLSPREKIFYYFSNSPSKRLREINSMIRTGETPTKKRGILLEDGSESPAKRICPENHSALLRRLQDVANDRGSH

How the values were obtained:
GST-LIN9^94–542 (human) = GST-LIN9^94–542 (human) (UniProt Q5TKA1); assay: pull-down; all five tagged MuvB subunits co-expressed in Sf9 cells; extracts precipitated with resin capturing the indicated tag, also successive precipitations of different affinity tags; coomassie staining
[1] = biological target: T1, FLAG-tagged mouse LIN9^1–300 (mouse) (UniProt Q8C735); assay: co-IP; FLAG-tagged mouse proteins transfected into HCT116 cells (10 uM Nutlin-3a for 24 h to stimulate DREAM formation); anti-FLAG magnetic agarose from 2-3 mg whole cell extract, IP lysis buffer with 150 mM NaCl, 0.5% Triton-X 100; endogenous proteins detected by western blot
T1 sequence: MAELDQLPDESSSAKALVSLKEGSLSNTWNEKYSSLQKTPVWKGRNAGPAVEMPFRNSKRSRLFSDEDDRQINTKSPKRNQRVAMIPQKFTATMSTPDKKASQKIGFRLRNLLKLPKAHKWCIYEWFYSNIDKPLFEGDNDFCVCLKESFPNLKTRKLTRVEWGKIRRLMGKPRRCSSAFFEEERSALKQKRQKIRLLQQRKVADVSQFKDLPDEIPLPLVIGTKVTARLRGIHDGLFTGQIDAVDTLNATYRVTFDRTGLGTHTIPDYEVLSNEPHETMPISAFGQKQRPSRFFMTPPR

[2] = biological target: T2, FLAG-tagged mouse LIN9, wild type (mouse) (UniProt Q8C735); assay: as above
T2 sequence: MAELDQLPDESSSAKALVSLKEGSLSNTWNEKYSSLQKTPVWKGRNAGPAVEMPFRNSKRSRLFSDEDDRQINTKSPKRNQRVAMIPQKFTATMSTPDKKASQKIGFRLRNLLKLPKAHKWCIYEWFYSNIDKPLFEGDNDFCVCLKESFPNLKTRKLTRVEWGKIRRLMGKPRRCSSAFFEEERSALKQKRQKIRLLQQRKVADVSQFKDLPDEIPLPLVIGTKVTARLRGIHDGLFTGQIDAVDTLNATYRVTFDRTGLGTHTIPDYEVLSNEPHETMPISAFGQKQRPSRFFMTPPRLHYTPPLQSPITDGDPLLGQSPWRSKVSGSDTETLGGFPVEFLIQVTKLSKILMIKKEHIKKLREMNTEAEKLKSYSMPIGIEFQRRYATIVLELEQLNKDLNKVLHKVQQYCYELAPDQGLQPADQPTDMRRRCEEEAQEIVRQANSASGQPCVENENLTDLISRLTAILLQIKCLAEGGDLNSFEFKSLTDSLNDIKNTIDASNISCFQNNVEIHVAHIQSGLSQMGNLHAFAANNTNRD

[3] = biological target: T3, FLAG-LIN9 triple mutant E125A/W126A/F127A (mouse) (UniProt Q8C735); assay: as above
T3 sequence: T2 sequence with E125A, W126A, F127A

[4] = biological target: T4, FLAG-tagged mouse LIN9^300–542 (mouse) (UniProt Q8C735); assay: as above
T4 sequence: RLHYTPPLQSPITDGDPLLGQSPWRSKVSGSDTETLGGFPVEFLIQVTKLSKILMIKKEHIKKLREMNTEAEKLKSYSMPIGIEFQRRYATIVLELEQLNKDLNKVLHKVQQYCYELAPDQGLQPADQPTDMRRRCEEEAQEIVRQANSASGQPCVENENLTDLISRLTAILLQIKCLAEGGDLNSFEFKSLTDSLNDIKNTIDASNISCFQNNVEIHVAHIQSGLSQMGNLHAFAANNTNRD

[5] = biological target: T5, FLAG-LIN9 quadruple mutant R174A/R175A/F180A/F181A (mouse) (UniProt Q8C735); assay: as above
T5 sequence: T2 sequence with R174A, R175A, F180A, F181A

[6] = biological target: LIN9^94–278 (DIRP region of LIN9) (human) (UniProt Q5TKA1); assay: crystal structure; MuvBN subcomplex, sitting drop at 4 °C, 0.2 M sodium tartrate, 0.1 M bis-tris propane pH 6.5, 20% PEG 3350; 2.55 Å; both purified

| Substance | binding (GST-LIN9^94–542 (human)) | binding [1] | binding [2] | binding [4] | also measured |
| --- | --- | --- | --- | --- | --- |
| GST-LIN37 (from UniProt Q96GY3 1-246) | binds |  |  |  |  |
| GST-LIN52 (from UniProt Q52LA3 1-112) | binds |  |  |  |  |
| His-LIN54^504–749 (from UniProt Q6MZP7 504-749) (domain or fragment) | binds |  |  |  |  |
| LIN37^92–130 (CRAW domain of LIN37) (from UniProt Q96GY3 92-130) (domain or fragment) |  |  |  |  | binding [6]: binds |

Now from value to substance, other results behind:

| binding (GST-LIN9^94–542 (human)) | binding [1] | binding [2] | binding [4] | Substance | also measured |
| --- | --- | --- | --- | --- | --- |
|  | binds | binds | no binding | LIN37, endogenous in HCT116 cells (from UniProt Q96GY3 1-246) | binding [3]: no binding; binding [5]: no binding |
|  | no binding | binds | binds | LIN54, endogenous in HCT116 cells (from UniProt Q6MZP7 1-749) |  |
|  | binds | binds | no binding | RBAP48, endogenous in HCT116 cells (from UniProt Q09028 1-425) | binding [5]: no binding |
|  | no binding |  | binds | p130, endogenous in HCT116 cells (from UniProt Q08999 1-1139) |  |
